The values that follow come from article PMC4336329 (PLoS ONE, 2015).

The structures appear in SMILES notation. Out of some 310,000 compounds screened, about 14,000 (4.5%) showed an effect of 50% or more. Effects have a minus sign here. The list shows a part of the results.
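Also: peak tail current of the secondary pulse compared with the same well before compound.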

The assay deals with human ether-à-go-go-related gene (hERG) potassium channel (human, UniProt Q12809). Nature of the assay: primary screen, population patch clamp on CHO cells stably expressing hERG.
Sequence of human ether-à-go-go-related gene (hERG) potassium channel (Q12809 whole entry, looked up): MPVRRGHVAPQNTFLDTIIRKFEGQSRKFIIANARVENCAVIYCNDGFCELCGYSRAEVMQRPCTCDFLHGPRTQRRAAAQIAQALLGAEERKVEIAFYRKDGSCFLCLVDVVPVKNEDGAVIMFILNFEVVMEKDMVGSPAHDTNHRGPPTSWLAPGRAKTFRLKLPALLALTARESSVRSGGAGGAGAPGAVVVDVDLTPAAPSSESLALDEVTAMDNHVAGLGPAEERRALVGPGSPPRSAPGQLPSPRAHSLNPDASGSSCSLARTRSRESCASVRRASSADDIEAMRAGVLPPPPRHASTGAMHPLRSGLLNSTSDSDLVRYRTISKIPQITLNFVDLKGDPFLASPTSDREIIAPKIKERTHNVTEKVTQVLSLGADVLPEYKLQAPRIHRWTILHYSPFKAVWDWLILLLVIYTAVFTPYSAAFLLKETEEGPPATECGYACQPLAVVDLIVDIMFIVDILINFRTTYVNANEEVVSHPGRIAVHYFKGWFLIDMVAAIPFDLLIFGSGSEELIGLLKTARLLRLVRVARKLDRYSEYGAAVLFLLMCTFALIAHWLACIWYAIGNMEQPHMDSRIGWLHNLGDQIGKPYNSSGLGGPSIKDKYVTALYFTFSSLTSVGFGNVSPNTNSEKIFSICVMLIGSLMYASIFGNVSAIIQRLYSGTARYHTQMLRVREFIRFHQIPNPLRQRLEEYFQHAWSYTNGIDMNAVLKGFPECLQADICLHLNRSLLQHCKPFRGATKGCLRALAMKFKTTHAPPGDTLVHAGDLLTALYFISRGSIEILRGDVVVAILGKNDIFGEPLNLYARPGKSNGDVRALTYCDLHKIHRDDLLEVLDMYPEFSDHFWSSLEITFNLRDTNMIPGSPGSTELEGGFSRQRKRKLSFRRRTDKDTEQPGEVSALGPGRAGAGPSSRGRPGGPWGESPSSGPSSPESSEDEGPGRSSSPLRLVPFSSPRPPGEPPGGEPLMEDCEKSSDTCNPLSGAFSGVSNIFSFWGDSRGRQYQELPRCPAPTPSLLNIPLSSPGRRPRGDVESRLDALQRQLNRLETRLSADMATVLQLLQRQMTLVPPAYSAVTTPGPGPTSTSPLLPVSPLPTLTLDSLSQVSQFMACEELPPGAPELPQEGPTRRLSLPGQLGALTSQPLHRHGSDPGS
In the case of `Cc1ccc(S(=O)(=O)N2CCOCC2)cc1NC(=O)C(c1ccc(Cl)cc1)C(C)C` (centres unmarked), the “hERG current change (%, negative = inhibition) at 10uM” value came to 1.8%.
Turning to `c1ccc(CSc2n[nH]c(-c3ccco3)n2)cc1`, the “hERG current change (%, negative = inhibition) at 10uM” value was determined as 3.87%.
With `CC(OC(=O)c1nc(Cl)ccc1Cl)C(=O)c1ccccc1` (centres unmarked) the figure was 7.87%; with `CCCCN(C(=O)c1c(CC)noc1C)c1c(N)n(CCC)c(=O)[nH]c1=O`, 10.6%; with `C=CCNc1nc(Cl)nc(Nc2ccccc2)n1`, 1.99%.
With `CCOC(=O)N1CCN(C(=O)CN(c2ccc(Cl)c(C(F)(F)F)c2)S(C)(=O)=O)CC1` the figure was -29.1%; with `CCOC(=O)N1CCN(CC(O)COCc2ccc(OC)c(OC)c2)CC1.Cl` (centres unmarked), -6.91%.
In the case of `Cc1ccc(C)c(OCC(=O)NCC(C)C)c1C`, the “hERG current change (%, negative = inhibition) at 10uM” value is 11.1%.
`CCN1CCN(C(CNC(=O)c2ccc3c(c2)OCO3)c2cccnc2)CC1` (centres unmarked): the “hERG current change (%, negative = inhibition) at 10uM” value is -17.9%.
For the molecule `C=CCn1c(SCCC(=O)O)nc2c1c(=O)n(C)c(=O)n2C`, the “hERG current change (%, negative = inhibition) at 10uM” value is recorded as 22.8%.
For the molecule `CCNC(=O)NC(=O)C(C)OC(=O)CCS(=O)(=O)c1ccc(C)cc1` (centres unmarked), the “hERG current change (%, negative = inhibition) at 10uM” value worked out at 5.85%.
The same measure for `CCOc1ccc(S(=O)(=O)NN)cc1`: 5.45%.
As to `CCOC(=O)C1(CCOc2ccccc2)CCN(Cc2ccc(OCC)c(CO)c2)CC1`, the “hERG current change (%, negative = inhibition) at 10uM” value is -79.5%.
With `CS(=O)(=O)N1Cc2ccccc2CC1C(=O)O` (centres unmarked), the “hERG current change (%, negative = inhibition) at 10uM” value came out at 18%.
Regarding `CCOCCCn1c(=S)[nH]c2cc(C(=O)N3CCC(C(N)=O)CC3)ccc2c1=O`, the “hERG current change (%, negative = inhibition) at 10uM” value is listed as -8.7%.
For `CCOC(=O)NNC(=O)CCn1c2c(c3ccccc31)CCCC2`, the “hERG current change (%, negative = inhibition) at 10uM” value is given as -16.4%.
`CCCn1c(=O)c(C(=O)NNS(=O)(=O)c2ccc(C)cc2)c(O)c2ccccc21`: the “hERG current change (%, negative = inhibition) at 10uM” value turned out to be 1.26%.
As to `CSc1ncccc1C(=O)Nc1ccc(F)c(F)c1F`, the “hERG current change (%, negative = inhibition) at 10uM” value is listed as 15.6%.
Take `O=C(CSc1nnc2ccc(-c3ccc(Br)cc3)nn12)NCC1CCCO1` (centres unmarked): the “hERG current change (%, negative = inhibition) at 10uM” value is -43.3%.
The same measure for `CC(C)OC(=O)CSc1nc2ncc(Cl)cc2[nH]1`: 9.74%; for `Cc1cccc(-n2nc([N+](=O)[O-])c(N3CCN(C(=O)c4ccco4)CC3)[n+]2[O-])c1`: -68.7%; for `Cc1ccc(S(=O)(=O)N2CCSC2C(=O)O)cc1` (centres unmarked): 1.52%.
As for `O=C(Oc1cc(Cl)cc(Cl)c1)c1cnc2n(c1=O)CCS2`, the “hERG current change (%, negative = inhibition) at 10uM” value is listed as -0.77%.
For the molecule `COc1ccc(OCC(=O)NNC(=O)C(=O)N2CCCC2)cc1`, the “hERG current change (%, negative = inhibition) at 10uM” value is recorded as -3.91%.
The same measure for `COc1ccc(-c2noc3c2-c2nc(-c4ccccc4)sc2CC3)cc1`: 10.5%; for `COC(=O)c1ccc(CSc2n[nH]c(=S)s2)o1`: 16.3%.
